Measurements reported in publication PMC4063256.
These are yes or no findings as the source states them, for the method shown. Binding seen in cells or lysates may run through a third protein. Some binding calls cover weakened binding; strength is not graded here. For part of these data: Sequences can lack the tags named with a protein. One block for each molecule: values may come before it.

By UniProt entry, the sequences of proteins in these tests, tags left out. Where a name states a change or a piece, a line headed by the entry shows the natural chain unless it says otherwise.
UniProt Q14839: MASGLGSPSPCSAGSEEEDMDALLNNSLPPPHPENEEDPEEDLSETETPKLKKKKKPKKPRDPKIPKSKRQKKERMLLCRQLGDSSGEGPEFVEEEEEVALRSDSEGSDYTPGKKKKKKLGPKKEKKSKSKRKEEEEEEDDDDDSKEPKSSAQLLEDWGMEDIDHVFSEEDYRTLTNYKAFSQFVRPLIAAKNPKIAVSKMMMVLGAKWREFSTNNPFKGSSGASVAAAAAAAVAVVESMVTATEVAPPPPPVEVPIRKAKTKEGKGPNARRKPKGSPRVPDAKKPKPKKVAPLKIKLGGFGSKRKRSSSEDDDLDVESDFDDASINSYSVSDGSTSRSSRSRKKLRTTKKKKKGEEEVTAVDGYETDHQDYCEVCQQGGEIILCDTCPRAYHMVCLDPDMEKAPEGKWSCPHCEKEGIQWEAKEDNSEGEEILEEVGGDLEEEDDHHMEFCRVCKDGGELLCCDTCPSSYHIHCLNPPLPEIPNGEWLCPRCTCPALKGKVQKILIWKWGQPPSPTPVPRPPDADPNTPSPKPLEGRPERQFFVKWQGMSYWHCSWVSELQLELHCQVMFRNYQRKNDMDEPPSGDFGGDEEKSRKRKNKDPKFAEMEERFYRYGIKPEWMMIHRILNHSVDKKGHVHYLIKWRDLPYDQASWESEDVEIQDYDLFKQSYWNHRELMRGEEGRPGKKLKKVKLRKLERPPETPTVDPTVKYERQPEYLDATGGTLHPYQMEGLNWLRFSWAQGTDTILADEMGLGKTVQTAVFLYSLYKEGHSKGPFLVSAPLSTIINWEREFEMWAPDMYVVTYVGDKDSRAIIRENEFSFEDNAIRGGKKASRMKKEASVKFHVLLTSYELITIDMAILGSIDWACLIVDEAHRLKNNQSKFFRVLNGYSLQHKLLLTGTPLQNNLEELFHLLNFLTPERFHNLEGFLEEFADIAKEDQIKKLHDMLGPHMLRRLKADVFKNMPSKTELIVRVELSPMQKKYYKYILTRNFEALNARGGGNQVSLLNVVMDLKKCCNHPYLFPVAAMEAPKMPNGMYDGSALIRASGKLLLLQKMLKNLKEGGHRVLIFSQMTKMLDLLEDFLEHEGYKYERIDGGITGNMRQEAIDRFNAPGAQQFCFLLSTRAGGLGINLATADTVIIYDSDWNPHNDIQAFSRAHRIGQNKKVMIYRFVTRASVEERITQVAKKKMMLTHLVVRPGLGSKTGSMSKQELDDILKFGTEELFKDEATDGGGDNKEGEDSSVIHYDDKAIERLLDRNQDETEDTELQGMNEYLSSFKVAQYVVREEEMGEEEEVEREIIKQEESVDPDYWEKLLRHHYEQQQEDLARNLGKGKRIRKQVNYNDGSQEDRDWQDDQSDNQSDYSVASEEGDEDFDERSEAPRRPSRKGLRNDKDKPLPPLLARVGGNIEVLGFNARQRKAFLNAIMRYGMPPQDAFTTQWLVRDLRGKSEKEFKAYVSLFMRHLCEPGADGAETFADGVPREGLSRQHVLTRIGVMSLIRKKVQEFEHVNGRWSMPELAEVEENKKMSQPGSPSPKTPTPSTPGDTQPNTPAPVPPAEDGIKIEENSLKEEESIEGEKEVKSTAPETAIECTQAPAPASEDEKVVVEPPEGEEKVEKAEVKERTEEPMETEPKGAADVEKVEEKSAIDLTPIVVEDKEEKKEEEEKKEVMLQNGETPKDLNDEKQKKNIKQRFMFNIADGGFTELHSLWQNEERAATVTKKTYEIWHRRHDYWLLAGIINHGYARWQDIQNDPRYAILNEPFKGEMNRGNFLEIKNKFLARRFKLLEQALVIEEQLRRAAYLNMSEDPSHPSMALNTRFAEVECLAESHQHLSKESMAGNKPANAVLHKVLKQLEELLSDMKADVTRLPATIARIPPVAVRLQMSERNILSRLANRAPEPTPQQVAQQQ
UniProt O75362: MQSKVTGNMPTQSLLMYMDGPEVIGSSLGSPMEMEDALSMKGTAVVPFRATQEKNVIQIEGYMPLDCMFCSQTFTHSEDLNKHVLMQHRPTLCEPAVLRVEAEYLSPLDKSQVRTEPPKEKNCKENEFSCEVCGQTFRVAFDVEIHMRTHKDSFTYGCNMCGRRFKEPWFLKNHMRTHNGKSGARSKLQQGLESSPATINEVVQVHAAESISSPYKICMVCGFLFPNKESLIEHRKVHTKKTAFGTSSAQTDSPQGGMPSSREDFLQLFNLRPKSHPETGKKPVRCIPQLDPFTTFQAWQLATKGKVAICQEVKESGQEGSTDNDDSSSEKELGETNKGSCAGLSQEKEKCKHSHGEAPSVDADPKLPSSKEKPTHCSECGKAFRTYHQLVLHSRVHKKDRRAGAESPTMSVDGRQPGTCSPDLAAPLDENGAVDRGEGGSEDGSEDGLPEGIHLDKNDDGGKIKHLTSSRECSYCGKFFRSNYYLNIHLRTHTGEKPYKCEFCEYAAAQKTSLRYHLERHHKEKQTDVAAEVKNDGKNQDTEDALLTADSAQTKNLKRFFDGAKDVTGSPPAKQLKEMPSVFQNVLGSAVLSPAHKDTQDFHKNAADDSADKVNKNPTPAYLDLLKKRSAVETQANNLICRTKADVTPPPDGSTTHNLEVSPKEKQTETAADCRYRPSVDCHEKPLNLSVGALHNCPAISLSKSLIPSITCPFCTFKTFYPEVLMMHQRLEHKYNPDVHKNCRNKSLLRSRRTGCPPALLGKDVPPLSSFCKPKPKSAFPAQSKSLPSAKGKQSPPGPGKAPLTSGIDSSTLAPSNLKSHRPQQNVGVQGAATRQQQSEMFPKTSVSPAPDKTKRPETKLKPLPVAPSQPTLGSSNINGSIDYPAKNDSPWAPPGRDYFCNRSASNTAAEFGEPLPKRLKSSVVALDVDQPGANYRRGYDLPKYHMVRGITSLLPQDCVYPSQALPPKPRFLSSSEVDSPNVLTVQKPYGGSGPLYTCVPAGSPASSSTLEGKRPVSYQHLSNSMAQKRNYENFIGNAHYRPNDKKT
UniProt Q92769: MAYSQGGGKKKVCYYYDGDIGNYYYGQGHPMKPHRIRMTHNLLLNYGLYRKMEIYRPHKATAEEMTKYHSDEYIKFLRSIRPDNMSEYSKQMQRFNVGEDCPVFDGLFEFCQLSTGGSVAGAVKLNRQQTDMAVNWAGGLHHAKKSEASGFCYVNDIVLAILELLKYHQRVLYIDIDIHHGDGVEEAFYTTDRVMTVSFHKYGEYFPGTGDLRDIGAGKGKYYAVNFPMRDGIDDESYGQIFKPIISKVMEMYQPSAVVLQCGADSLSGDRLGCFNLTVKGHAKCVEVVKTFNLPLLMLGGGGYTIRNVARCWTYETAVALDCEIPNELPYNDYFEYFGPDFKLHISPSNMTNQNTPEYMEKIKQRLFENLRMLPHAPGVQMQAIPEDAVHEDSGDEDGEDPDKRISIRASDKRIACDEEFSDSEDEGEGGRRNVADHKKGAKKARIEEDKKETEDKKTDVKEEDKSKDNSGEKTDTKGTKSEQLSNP
UniProt Q8WXI9: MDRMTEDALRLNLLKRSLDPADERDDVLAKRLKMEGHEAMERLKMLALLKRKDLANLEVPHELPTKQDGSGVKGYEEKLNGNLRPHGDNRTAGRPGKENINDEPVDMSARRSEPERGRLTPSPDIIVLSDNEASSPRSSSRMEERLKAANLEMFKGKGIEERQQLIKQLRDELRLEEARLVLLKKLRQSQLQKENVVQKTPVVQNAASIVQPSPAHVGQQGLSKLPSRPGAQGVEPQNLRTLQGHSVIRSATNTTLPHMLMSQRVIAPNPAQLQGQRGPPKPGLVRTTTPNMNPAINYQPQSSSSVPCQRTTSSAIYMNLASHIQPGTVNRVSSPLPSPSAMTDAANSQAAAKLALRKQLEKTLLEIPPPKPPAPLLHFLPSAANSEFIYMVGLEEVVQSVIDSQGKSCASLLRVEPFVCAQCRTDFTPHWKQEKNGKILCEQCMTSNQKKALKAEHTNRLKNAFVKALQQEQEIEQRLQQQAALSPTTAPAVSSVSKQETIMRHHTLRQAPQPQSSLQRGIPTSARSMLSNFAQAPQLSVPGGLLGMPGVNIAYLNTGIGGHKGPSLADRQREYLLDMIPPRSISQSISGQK

Key:
Flag-HA-tagged CtBP2 [1] = biological target: Flag-HA-tagged CtBP2 (UniProt P56545); test: co-IP; lysates of HeLa lines stably expressing FH-CtBP2 or FH-CtBP1 and of normal HeLa, untreated or treated with 10 uM etoposide for 6 hr; Flag antibody beads, 4°C 1 hr; Western blots of endogenous proteins
[2] = biological target: CtBP2 mutant A58E (Flag-HA-tagged) (UniProt P56545); test: co-IP; HeLa cells transiently transfected with Flag-HA-tagged CtBP expression constructs; Flag antibody beads; Western blots of endogenous cellular proteins
Flag-HA-tagged CtBP2 [3] = biological target: Flag-HA-tagged CtBP2 (UniProt P56545); test: as above
Flag-HA-tagged CtBP2 [4] = biological target: Flag-HA-tagged CtBP2 (UniProt P56545); test: co-IP; data not shown; same analysis as the Flag co-IP from HeLa/FH-CtBP2 lysates, untreated or etoposide-treated
[5] = biological target: K10R-CtBP2 mutant (Flag-HA-tagged) (UniProt P56545); test: co-IP; HeLa cells transiently transfected with Flag-HA-tagged CtBP expression constructs; Flag antibody beads; Western blots of endogenous cellular proteins
[6] = biological target: CtBP2 mutant A58E (Flag-HA-tagged) (UniProt P56545); test: co-IP; HeLa cells co-transfected with FH-tagged CtBP constructs and Myc-E2F7 constructs; lysate pre-incubated with 2 ug of a non-specific IgG (mouse monoclonal to luciferase); Flag antibody beads; Western blot
Flag-HA-tagged CtBP2 [7] = biological target: Flag-HA-tagged CtBP2 (UniProt P56545); test: as above
[8] = biological target: endogenous CtBP2 (human (endogenous in A549)) (UniProt P56545); test: co-IP; lysates of normal A549 cells and of A549 cells with CtBP1 & 2 double knock-down; immunoprecipitated with a CtBP2 antibody; Western blot with E2F7 antibody

Molecule: Mi-2 protein (CHD4) (from UniProt Q14839 1-1912)
binding (Flag-HA-tagged CtBP2 [1]): binds

Molecule: Zinc finger protein 217 (from UniProt O75362 1-1048)
binding (Flag-HA-tagged CtBP2 [4]): binds

B1: Myc-tagged E2F7 (mouse E2F7 clone) (protein, UniProt Q6S7F2 1-904)
chain: MEVNCLTLKDLISPRQTRLDFAIEDAENAQKENIFVDRSRMTPKTPMKNEPIDLSKQRIFTPDRNPITPVKPVDRQPQVEPWTPTANLKMLISAASPDIRDREKKKELFRPIENKEDAFVNSLQLDVAGDGAVDEYEKQRPSRKQKSLGLLCQKFLARYPSYPLSTEKTTISLDEVAVSLGVERRRIYDIVNVLESLHLVSRVAKNQYGWHGRHSLPKTLRTLQRLGEEQKYEEQMACLQQKELDLMGYRFGERRKDGSPDPRDPHLLDFSEADYPSSSANSRKDKSLRIMSQKFVMLFLVSKTKIVTLDVAAKILIEESQDTPDHSKFKTKVRRLYDIANVLTSLALIKKVHVTEERGRKPAFKWIGPVDFSSIDEELLDVSASILPELKKEAYGQIRVCAKERLVRYGSFNTVHTSEKIQRKVSSEPSSPQGERQGSAYSLEIGSLAAIYRQKVEDNSQEEAFVSNTAVPPASILDPALSMDSEYCVKPLAQPVFSVAQTDLPAFSAQNGPSGQVGVPVPSAASDTENLKPALLAGQPLVYVPSTQLFMLYGSVQEGLSPESRSEEDGGGSDVPADLSVTPSAQKRLCEERDPQEEEDEPAMKRQSQEFEDSPLSLVMPKKPSSSTDLACPVTMGNGSSPPLEDACVKGQLPAAEEVTGKAAPNCYVASECGNPARNPDTEKPSNENEITKDPSLMQYLYVQSPAGLNGFNMVLPGTQTPHTVAPSPAQLPSFGVPCMFLQSPGLGPFPVLYSPAIPGPISSAPGTHPNPGPMNFGLSTLASASHLLISPAAMVNPKPSTLPCTDPQLRCQPSLNLNPVMPGSHGVIHPESPCYVRHPVSMVKAEQSPAPATPKSIQRRHRETFFKTPGSLGDPVFRRKERNQSRNTSSAQRRLEISSSGPD
binding [6]: no binding
binding (Flag-HA-tagged CtBP2 [7]): binds

B3: endogenous E2F7 (A549) (protein, UniProt Q96AV8 1-911)
chain: MEVNCLTLKDLISPRQPRLDFAVEDGENAQKENIFVDRSRMAPKTPIKNEPIDLSKQKKFTPERNPITPVKFVDRQQAEPWTPTANLKMLISAASPDIRDREKKKGLFRPIENKDDAFTDSLQLDVVGDSAVDEFEKQRPSRKQKSLGLLCQKFLARYPSYPLSTEKTTISLDEVAVSLGVERRRIYDIVNVLESLHLVSRVAKNQYGWHGRHSLPKTLRNLQRLGEEQKYEEQMAYLQQKELDLIDYKFGERKKDGDPDSQEQQLLDFSEPDCPSSSANSRKDKSLRIMSQKFVMLFLVSKTKIVTLDVAAKILIEESQDAPDHSKFKTKVRRLYDIANVLTSLALIKKVHVTEERGRKPAFKWIGPVDFSSSDEELVDVSASVLPELKRETYGQIQVCAKQKLARHGSFNTVQASERIQRKVNSEPSSPYREEQGSGGYSLEIGSLAAVYRQKIEDNSQGKAFASKRVVPPSSSLDPVAPFPVLSVDPEYCVNPLAHPVFSVAQTDLQAFSMQNGLNGQVDVSLASAASAVESLKPALLAGQPLVYVPSASLFMLYGSLQEGPASGSGSERDDRSSEAPATVELSSAPSAQKRLCEERKPQEEDEPATKRQSREYEDGPLSLVMPKKPSDSTDLASPKTMGNRASIPLKDIHVNGQLPAAEEISGKATANSLVSSEWGNPSRNTDVEKPSKENESTKEPSLLQYLCVQSPAGLNGFNVLLSGSQTPPTVGPSSGQLPSFSVPCMVLPSPPLGPFPVLYSPAMPGPVSSTLGALPNTGPVNFSLPGLGSIAQLLVGPTAVVNPKSSTLPSADPQLQSQPSLNLSPVMSRSHSVVQQPESPVYVGHPVSVVKLHQSPVPVTPKSIQRTHRETFFKTPGSLGDPVLKRRERNQSRNTSSAQRRLEIPSGGAD
binding [8]: binds

Second part, the molecule after the results:

binding [2]: no binding
binding (Flag-HA-tagged CtBP2 [3]): binds
binding (Flag-HA-tagged CtBP2 [1]): binds
Molecule: Histone deacetylase 2 (from UniProt Q92769 1-488)

binding [2]: no binding
binding [5]: no binding
binding (Flag-HA-tagged CtBP2 [3]): binds
binding (Flag-HA-tagged CtBP2 [1]): binds
Molecule: Transcriptional repressor p66-beta (from UniProt Q8WXI9 1-593)

binding [2]: no binding
binding (Flag-HA-tagged CtBP2 [3]): binds
binding (Flag-HA-tagged CtBP2 [1]): binds
B2: Transcription factor E2F7 (protein, UniProt Q96AV8 1-911)
chain: B3 chain
